Reference: the supplement of paper PMC12230231

Each sequence was assayed on SIVsab (simian immunodeficiency virus of sabaeus monkeys), single-cycle GFP reporter, in CRFK cells (assay: enrichment among infected cells over input (fold); higher = weaker restriction). Details: library: human / rhesus combinations.
Protocol: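 Pools of CRFK cells expressing variants of the TRIM5α v1 loop were challenged with the single-cycle reporter, sorted by GFP and sequenced; mean of two replicates.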
“MASGILLNVKEEVTCPICLELLTEPLSLHCGHSFCQACITANHKKSMLYKEGERSCPVCRISYQPENIQPNRHVANIVEKLREVKLSPEEGQKVDHCARHGEKLLLFCQEDSKVICWLCERSQEHRGHHTFLMEEVAQEYHVKLQTALEMLRQKQQEAEKLEADIREEKASWKIQIDYDKTNVSADFEQLREILDWEESNELQNLEKEEEDILKSLTKSETEMVQQTQYMRELISELEHRLQGSMMDLLQGVDGIIKRIENMTLKKPKTFHKNQRRVFRAPDLKGMLDMFRELTDARRYWVDVTLAPNNISHAVIAEDKRQVSSRNPQIMYQARGTLYTFQTLTNFNYCTGVLGSQSITSGKHYWEVDVSKKSAWILGVCAGFQSDAMYNIEQNENYQPKYGYWVIGLQEGVKYSVFQDGSSHTPFAPFIVPLSVIICPDRVGVFVDYEACTVSFFNITNHGFLIYKFSQCSFSKPVFPYLNPRKCTVPMTLCSPSS [rhesus TRIM5α, 332-344 = QARGTLYTFQTLT]” was tested, and the enrichment was 1.55 ± 0.64. With “MASGILLNVKEEVTCPICLELLTEPLSLHCGHSFCQACITANHKKSMLYKEGERSCPVCRISYQPENIQPNRHVANIVEKLREVKLSPEEGQKVDHCARHGEKLLLFCQEDSKVICWLCERSQEHRGHHTFLMEEVAQEYHVKLQTALEMLRQKQQEAEKLEADIREEKASWKIQIDYDKTNVSADFEQLREILDWEESNELQNLEKEEEDILKSLTKSETEMVQQTQYMRELISELEHRLQGSMMDLLQGVDGIIKRIENMTLKKPKTFHKNQRRVFRAPDLKGMLDMFRELTDARRYWVDVTLAPNNISHAVIAEDKRQVSSRNPQIMYGARGTRYQSLTNFNYCTGVLGSQSITSGKHYWEVDVSKKSAWILGVCAGFQSDAMYNIEQNENYQPKYGYWVIGLQEGVKYSVFQDGSSHTPFAPFIVPLSVIICPDRVGVFVDYEACTVSFFNITNHGFLIYKFSQCSFSKPVFPYLNPRKCTVPMTLCSPSS [rhesus TRIM5α, 332-344 = GARGTRYQSLT]” the enrichment was 0.316 ± 0.095. For “MASGILLNVKEEVTCPICLELLTEPLSLHCGHSFCQACITANHKKSMLYKEGERSCPVCRISYQPENIQPNRHVANIVEKLREVKLSPEEGQKVDHCARHGEKLLLFCQEDSKVICWLCERSQEHRGHHTFLMEEVAQEYHVKLQTALEMLRQKQQEAEKLEADIREEKASWKIQIDYDKTNVSADFEQLREILDWEESNELQNLEKEEEDILKSLTKSETEMVQQTQYMRELISELEHRLQGSMMDLLQGVDGIIKRIENMTLKKPKTFHKNQRRVFRAPDLKGMLDMFRELTDARRYWVDVTLAPNNISHAVIAEDKRQVSSRNPQIMYGAPGTLYTFQTFVNFNYCTGVLGSQSITSGKHYWEVDVSKKSAWILGVCAGFQSDAMYNIEQNENYQPKYGYWVIGLQEGVKYSVFQDGSSHTPFAPFIVPLSVIICPDRVGVFVDYEACTVSFFNITNHGFLIYKFSQCSFSKPVFPYLNPRKCTVPMTLCSPSS [rhesus TRIM5α, 332-344 = GAPGTLYTFQTFV]”, the enrichment was 1.25 ± 0.31. “MASGILLNVKEEVTCPICLELLTEPLSLHCGHSFCQACITANHKKSMLYKEGERSCPVCRISYQPENIQPNRHVANIVEKLREVKLSPEEGQKVDHCARHGEKLLLFCQEDSKVICWLCERSQEHRGHHTFLMEEVAQEYHVKLQTALEMLRQKQQEAEKLEADIREEKASWKIQIDYDKTNVSADFEQLREILDWEESNELQNLEKEEEDILKSLTKSETEMVQQTQYMRELISELEHRLQGSMMDLLQGVDGIIKRIENMTLKKPKTFHKNQRRVFRAPDLKGMLDMFRELTDARRYWVDVTLAPNNISHAVIAEDKRQVSSRNPQIMYGAPGTRFPSLTNFNYCTGVLGSQSITSGKHYWEVDVSKKSAWILGVCAGFQSDAMYNIEQNENYQPKYGYWVIGLQEGVKYSVFQDGSSHTPFAPFIVPLSVIICPDRVGVFVDYEACTVSFFNITNHGFLIYKFSQCSFSKPVFPYLNPRKCTVPMTLCSPSS [rhesus TRIM5α, 332-344 = GAPGTRFPSLT]” showed an enrichment of 0.639 ± 0.56. “MASGILLNVKEEVTCPICLELLTEPLSLHCGHSFCQACITANHKKSMLYKEGERSCPVCRISYQPENIQPNRHVANIVEKLREVKLSPEEGQKVDHCARHGEKLLLFCQEDSKVICWLCERSQEHRGHHTFLMEEVAQEYHVKLQTALEMLRQKQQEAEKLEADIREEKASWKIQIDYDKTNVSADFEQLREILDWEESNELQNLEKEEEDILKSLTKSETEMVQQTQYMRELISELEHRLQGSMMDLLQGVDGIIKRIENMTLKKPKTFHKNQRRVFRAPDLKGMLDMFRELTDARRYWVDVTLAPNNISHAVIAEDKRQVSSRNPQIMYQAPGTRYTFPTLTNFNYCTGVLGSQSITSGKHYWEVDVSKKSAWILGVCAGFQSDAMYNIEQNENYQPKYGYWVIGLQEGVKYSVFQDGSSHTPFAPFIVPLSVIICPDRVGVFVDYEACTVSFFNITNHGFLIYKFSQCSFSKPVFPYLNPRKCTVPMTLCSPSS [rhesus TRIM5α, 332-344 = QAPGTRYTFPTLT]” gave an enrichment of 0.907 ± 0.25. For “MASGILLNVKEEVTCPICLELLTEPLSLHCGHSFCQACITANHKKSMLYKEGERSCPVCRISYQPENIQPNRHVANIVEKLREVKLSPEEGQKVDHCARHGEKLLLFCQEDSKVICWLCERSQEHRGHHTFLMEEVAQEYHVKLQTALEMLRQKQQEAEKLEADIREEKASWKIQIDYDKTNVSADFEQLREILDWEESNELQNLEKEEEDILKSLTKSETEMVQQTQYMRELISELEHRLQGSMMDLLQGVDGIIKRIENMTLKKPKTFHKNQRRVFRAPDLKGMLDMFRELTDARRYWVDVTLAPNNISHAVIAEDKRQVSSRNPQIMYQAPGTRFTFQSFVNFNYCTGVLGSQSITSGKHYWEVDVSKKSAWILGVCAGFQSDAMYNIEQNENYQPKYGYWVIGLQEGVKYSVFQDGSSHTPFAPFIVPLSVIICPDRVGVFVDYEACTVSFFNITNHGFLIYKFSQCSFSKPVFPYLNPRKCTVPMTLCSPSS [rhesus TRIM5α, 332-344 = QAPGTRFTFQSFV]”, the enrichment was 1.7 ± 1.1. “MASGILLNVKEEVTCPICLELLTEPLSLHCGHSFCQACITANHKKSMLYKEGERSCPVCRISYQPENIQPNRHVANIVEKLREVKLSPEEGQKVDHCARHGEKLLLFCQEDSKVICWLCERSQEHRGHHTFLMEEVAQEYHVKLQTALEMLRQKQQEAEKLEADIREEKASWKIQIDYDKTNVSADFEQLREILDWEESNELQNLEKEEEDILKSLTKSETEMVQQTQYMRELISELEHRLQGSMMDLLQGVDGIIKRIENMTLKKPKTFHKNQRRVFRAPDLKGMLDMFRELTDARRYWVDVTLAPNNISHAVIAEDKRQVSSRNPQIMYQAPGTRFTFPSFVNFNYCTGVLGSQSITSGKHYWEVDVSKKSAWILGVCAGFQSDAMYNIEQNENYQPKYGYWVIGLQEGVKYSVFQDGSSHTPFAPFIVPLSVIICPDRVGVFVDYEACTVSFFNITNHGFLIYKFSQCSFSKPVFPYLNPRKCTVPMTLCSPSS [rhesus TRIM5α, 332-344 = QAPGTRFTFPSFV]” showed an enrichment of 1.28 ± 0.65. “MASGILLNVKEEVTCPICLELLTEPLSLHCGHSFCQACITANHKKSMLYKEGERSCPVCRISYQPENIQPNRHVANIVEKLREVKLSPEEGQKVDHCARHGEKLLLFCQEDSKVICWLCERSQEHRGHHTFLMEEVAQEYHVKLQTALEMLRQKQQEAEKLEADIREEKASWKIQIDYDKTNVSADFEQLREILDWEESNELQNLEKEEEDILKSLTKSETEMVQQTQYMRELISELEHRLQGSMMDLLQGVDGIIKRIENMTLKKPKTFHKNQRRVFRAPDLKGMLDMFRELTDARRYWVDVTLAPNNISHAVIAEDKRQVSSRNPQIMYGAPGTLFTFQSFTNFNYCTGVLGSQSITSGKHYWEVDVSKKSAWILGVCAGFQSDAMYNIEQNENYQPKYGYWVIGLQEGVKYSVFQDGSSHTPFAPFIVPLSVIICPDRVGVFVDYEACTVSFFNITNHGFLIYKFSQCSFSKPVFPYLNPRKCTVPMTLCSPSS [rhesus TRIM5α, 332-344 = GAPGTLFTFQSFT]” showed an enrichment of 0.943 ± 0.099. “MASGILLNVKEEVTCPICLELLTEPLSLHCGHSFCQACITANHKKSMLYKEGERSCPVCRISYQPENIQPNRHVANIVEKLREVKLSPEEGQKVDHCARHGEKLLLFCQEDSKVICWLCERSQEHRGHHTFLMEEVAQEYHVKLQTALEMLRQKQQEAEKLEADIREEKASWKIQIDYDKTNVSADFEQLREILDWEESNELQNLEKEEEDILKSLTKSETEMVQQTQYMRELISELEHRLQGSMMDLLQGVDGIIKRIENMTLKKPKTFHKNQRRVFRAPDLKGMLDMFRELTDARRYWVDVTLAPNNISHAVIAEDKRQVSSRNPQIMYGARGTRFTFQSLTNFNYCTGVLGSQSITSGKHYWEVDVSKKSAWILGVCAGFQSDAMYNIEQNENYQPKYGYWVIGLQEGVKYSVFQDGSSHTPFAPFIVPLSVIICPDRVGVFVDYEACTVSFFNITNHGFLIYKFSQCSFSKPVFPYLNPRKCTVPMTLCSPSS [rhesus TRIM5α, 332-344 = GARGTRFTFQSLT]” gave an enrichment of 1.4 ± 0.54. “MASGILLNVKEEVTCPICLELLTEPLSLHCGHSFCQACITANHKKSMLYKEGERSCPVCRISYQPENIQPNRHVANIVEKLREVKLSPEEGQKVDHCARHGEKLLLFCQEDSKVICWLCERSQEHRGHHTFLMEEVAQEYHVKLQTALEMLRQKQQEAEKLEADIREEKASWKIQIDYDKTNVSADFEQLREILDWEESNELQNLEKEEEDILKSLTKSETEMVQQTQYMRELISELEHRLQGSMMDLLQGVDGIIKRIENMTLKKPKTFHKNQRRVFRAPDLKGMLDMFRELTDARRYWVDVTLAPNNISHAVIAEDKRQVSSRNPQIMYQARGTLYTFPTFVNFNYCTGVLGSQSITSGKHYWEVDVSKKSAWILGVCAGFQSDAMYNIEQNENYQPKYGYWVIGLQEGVKYSVFQDGSSHTPFAPFIVPLSVIICPDRVGVFVDYEACTVSFFNITNHGFLIYKFSQCSFSKPVFPYLNPRKCTVPMTLCSPSS [rhesus TRIM5α, 332-344 = QARGTLYTFPTFV]” showed an enrichment of 1.47 ± 1.2. “MASGILLNVKEEVTCPICLELLTEPLSLHCGHSFCQACITANHKKSMLYKEGERSCPVCRISYQPENIQPNRHVANIVEKLREVKLSPEEGQKVDHCARHGEKLLLFCQEDSKVICWLCERSQEHRGHHTFLMEEVAQEYHVKLQTALEMLRQKQQEAEKLEADIREEKASWKIQIDYDKTNVSADFEQLREILDWEESNELQNLEKEEEDILKSLTKSETEMVQQTQYMRELISELEHRLQGSMMDLLQGVDGIIKRIENMTLKKPKTFHKNQRRVFRAPDLKGMLDMFRELTDARRYWVDVTLAPNNISHAVIAEDKRQVSSRNPQIMYQARGTRYTFPSFVNFNYCTGVLGSQSITSGKHYWEVDVSKKSAWILGVCAGFQSDAMYNIEQNENYQPKYGYWVIGLQEGVKYSVFQDGSSHTPFAPFIVPLSVIICPDRVGVFVDYEACTVSFFNITNHGFLIYKFSQCSFSKPVFPYLNPRKCTVPMTLCSPSS [rhesus TRIM5α, 332-344 = QARGTRYTFPSFV]” was tested, and the enrichment was 3.45 ± 1.7. With “MASGILLNVKEEVTCPICLELLTEPLSLHCGHSFCQACITANHKKSMLYKEGERSCPVCRISYQPENIQPNRHVANIVEKLREVKLSPEEGQKVDHCARHGEKLLLFCQEDSKVICWLCERSQEHRGHHTFLMEEVAQEYHVKLQTALEMLRQKQQEAEKLEADIREEKASWKIQIDYDKTNVSADFEQLREILDWEESNELQNLEKEEEDILKSLTKSETEMVQQTQYMRELISELEHRLQGSMMDLLQGVDGIIKRIENMTLKKPKTFHKNQRRVFRAPDLKGMLDMFRELTDARRYWVDVTLAPNNISHAVIAEDKRQVSSRNPQIMYGAPGTRFQSLTNFNYCTGVLGSQSITSGKHYWEVDVSKKSAWILGVCAGFQSDAMYNIEQNENYQPKYGYWVIGLQEGVKYSVFQDGSSHTPFAPFIVPLSVIICPDRVGVFVDYEACTVSFFNITNHGFLIYKFSQCSFSKPVFPYLNPRKCTVPMTLCSPSS [rhesus TRIM5α, 332-344 = GAPGTRFQSLT]” the enrichment was 3.13 ± 2.8.

± gives the standard deviation of the averaged measurements. Restriction of a single-cycle SIVsab GFP reporter by TRIM5α v1-loop variants in CRFK cells. Human variants: read share among cells still uninfected after two challenges over input, higher = gained restriction. Rhesus variants: share among infected cells over input, higher = lost restriction. Reporter dose not given per row. No active / inactive call per row; the paper calls a change when both replicates lie above its controls (mean + 2 SD of stop or wild-type variants, or the top frameshift score). Residues outside the varied loop are taken from Swiss-Prot. The paper reads the human single-substitution scores as noise; they and the rhesus combinations repeat poorly (rank correlation 0.3 to 0.4), indel scores repeat only for the top variants, rhesus substitutions well (0.9).
